# Hit rate of the full screen: of about 220,000 compounds, about 5,700 (2.6%) were called active. This list was built around the results that the source calls inconclusive (neither active nor inactive); the mix of calls is not that of the screen. The call rests on the fitted dose curve; in most records, active means well fitted inhibition curve with a large enough effect; inconclusive means small, poorly fitted or top-dose-only effect; inactive means no such curve, though single readings can be large or run the other way. A potency beside an inconclusive call is a rough fit, not a confirmed value.
# Molecular target: Lysine-specific demethylase 5B (Homo sapiens) (UniProt Q9UGL1)
# Experiment: Primary screen for KDM5B Histone Demethylases FDH-coupled qHTS; further: nearly all actives have a fitted effect of over 70% in size; on activity change, negative = inhibition: 0% is about no effect
# Settings: FDH-coupled NADH fluorescence (FDH is formaldehyde dehydrogenase); activity change, negative = inhibition: at 57.7 µM (top of the series) unless noted
# In short: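 Compound dilutions met 200 nM (final) KDM5BΔAP for 10 min at room temperature before substrate addition. The substrate mix held 12.5 µM H3K4me3 with cofactors 25 µM α-ketoglutarate and 50 µM Fe²⁺. NADH signal gain over 30 min defined activity.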
# Potency means the concentration at half of the fitted maximal effect; tags describe the fitted curve by direction and shape.
# Sequence of UniProt Q9UGL1 (Q9UGL1 whole entry, looked up): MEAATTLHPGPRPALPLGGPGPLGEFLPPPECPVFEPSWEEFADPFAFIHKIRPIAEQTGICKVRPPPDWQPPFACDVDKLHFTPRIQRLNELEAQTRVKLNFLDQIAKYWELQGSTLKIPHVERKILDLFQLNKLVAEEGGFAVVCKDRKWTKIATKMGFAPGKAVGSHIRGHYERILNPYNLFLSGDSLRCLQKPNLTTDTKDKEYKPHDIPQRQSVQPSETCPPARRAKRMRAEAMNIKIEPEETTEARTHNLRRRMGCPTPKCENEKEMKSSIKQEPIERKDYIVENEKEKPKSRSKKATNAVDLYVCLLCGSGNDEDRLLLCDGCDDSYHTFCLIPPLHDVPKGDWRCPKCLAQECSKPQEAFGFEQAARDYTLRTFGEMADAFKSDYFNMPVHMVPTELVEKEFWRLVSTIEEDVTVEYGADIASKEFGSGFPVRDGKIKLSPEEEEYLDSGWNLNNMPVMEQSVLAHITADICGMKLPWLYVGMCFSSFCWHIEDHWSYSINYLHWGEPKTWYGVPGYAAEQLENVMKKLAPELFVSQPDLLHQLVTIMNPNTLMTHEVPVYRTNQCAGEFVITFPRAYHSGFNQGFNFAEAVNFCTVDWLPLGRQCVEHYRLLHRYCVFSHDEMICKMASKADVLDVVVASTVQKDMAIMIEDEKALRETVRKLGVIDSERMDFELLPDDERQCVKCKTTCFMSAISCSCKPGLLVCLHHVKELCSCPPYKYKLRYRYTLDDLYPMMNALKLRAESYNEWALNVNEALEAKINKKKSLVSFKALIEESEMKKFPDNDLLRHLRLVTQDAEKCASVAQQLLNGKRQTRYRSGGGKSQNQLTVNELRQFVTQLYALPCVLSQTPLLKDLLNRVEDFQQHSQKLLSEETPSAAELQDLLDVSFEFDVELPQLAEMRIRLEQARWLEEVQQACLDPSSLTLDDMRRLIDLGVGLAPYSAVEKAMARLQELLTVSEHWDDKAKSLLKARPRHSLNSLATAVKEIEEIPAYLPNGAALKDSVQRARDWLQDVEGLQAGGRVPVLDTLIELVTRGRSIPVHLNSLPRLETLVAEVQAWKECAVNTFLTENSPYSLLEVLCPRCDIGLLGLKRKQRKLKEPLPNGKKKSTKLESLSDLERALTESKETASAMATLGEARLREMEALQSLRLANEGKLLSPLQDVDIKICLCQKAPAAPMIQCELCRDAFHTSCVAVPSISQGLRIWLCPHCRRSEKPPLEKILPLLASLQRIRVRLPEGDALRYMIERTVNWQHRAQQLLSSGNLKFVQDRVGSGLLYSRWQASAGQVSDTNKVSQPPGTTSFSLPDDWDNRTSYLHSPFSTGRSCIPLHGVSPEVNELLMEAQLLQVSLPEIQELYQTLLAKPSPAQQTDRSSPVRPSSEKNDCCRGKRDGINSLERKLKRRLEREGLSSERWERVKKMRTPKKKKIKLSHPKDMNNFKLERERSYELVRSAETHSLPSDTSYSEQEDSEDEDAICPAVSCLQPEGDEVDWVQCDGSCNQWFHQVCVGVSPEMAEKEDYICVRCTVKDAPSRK
Structure (SMILES),Potency,"activity change, negative = inhibition"
Cc1nn(-c2cccc(Br)c2)c(C)c1[C@@H]1C=C[C@@H](NS(C)(=O)=O)C1,"inconclusive: 22.4 µM [inhibitor, partial curve]",
O=C(c1ccc2c(c1)N(Cc1cccc(Cl)c1)C(=O)c1ccccc1S2(=O)=O)N1CCN(Cc2ccccc2)CC1,,inconclusive: -33.7% [inhibitor]
COc1ccc(-c2cc(C(=O)NC3CCCC3)c3ccccc3n2)cc1,"inconclusive: 3.16 µM [inhibitor, full curve, poor fit]",
O=C(Nc1ccc(Cl)cc1)c1cc2cc(Cl)ccc2[nH]1,"inconclusive: 22.4 µM [inhibitor, partial curve, poor fit]",
Oc1cccc(-c2nc(-c3cccs3)c(-c3cccs3)[nH]2)c1,"inconclusive: 31.6 µM [inhibitor, partial curve, poor fit]",
COC[C@@H]1CN(C(=O)c2ncccc2C)C[C@H]1C(N)=O,,inactive: 9.51%
CCCN(CCC)CCCNC(=O)c1sc2nc3n(c(=O)c2c1C)CCC3,"inconclusive: 28.2 µM [inhibitor, partial curve, poor fit]",
Cn1cc(C(C(=O)O)N2CCN(C(c3ccccc3)c3ccccc3)CC2)c2cc(C(=O)O)ccc21 (stereo not given),,inactive: -23.4%
CC(C)c1noc(-c2cccn3c(CNC(=O)c4cc(F)ccc4F)nnc23)n1,active: 25.1 µM,
COc1nc2nc(CCc3ccccc3)n(C)c2cc1-c1ccncc1,"inconclusive: 35.5 µM [inhibitor, partial curve, poor fit]",
CN(Cc1ccccc1Cl)C(=O)c1ccc2c(c1)CCCN2S(C)(=O)=O,,inactive: 20.6%
O=C(Nc1ccc2oc(=O)ccc2c1)c1ccc(Cl)cc1,"inconclusive: 39.8 µM [inhibitor, single point]",
CCn1ncc(C(=O)N2C[C@@H](COC)[C@H](c3nc(C4CC4)no3)C2)c1C,,inactive: 14.4%
Cc1ccc(Nc2nc3c(S(=O)(=O)c4ccccc4)nnn3c3ccc(Cl)cc23)c(C)c1,"inconclusive: 3.55 µM [inhibitor, partial curve, poor fit]",
N#Cc1nc(-c2ccco2)oc1N1CCN(C(=O)c2ccccc2F)CC1,"inconclusive: 20 µM [inhibitor, partial curve, poor fit]",
COc1cc2nc(Nc3ccc(C)c(C)c3)nc(N)c2cc1OC,"inconclusive: 22.4 µM [inhibitor, partial curve, poor fit]",
Cc1cccc(OC(=O)c2nc(SCc3ccccc3F)ncc2Cl)c1,"inconclusive: 28.2 µM [inhibitor, single point]",
CCOC(=O)c1ccc(NC(=O)Cn2cc(C(=O)c3cccs3)c3ccccc32)cc1,"inconclusive: 28.2 µM [inhibitor, partial curve, poor fit]",
O=C(CCn1c(=O)c2cccn2c2cccnc21)NCc1ccc(Cl)cc1,"inconclusive: 35.5 µM [inhibitor, partial curve, poor fit]",
COc1ccccc1NC(=O)C1=C(C)Nc2c(C(=O)Nc3cccc(C)c3)cnn2C1c1ccccc1C (stereo not given),"inconclusive: 15.8 µM [inhibitor, partial curve, poor fit]",

Structure (SMILES),Potency,"activity change, negative = inhibition"
O=C(Cc1ccc(-c2ccccc2)cc1)Nc1ncccc1O,"inconclusive: 22.4 µM [inhibitor, partial curve, poor fit]",
Cc1ccc(/C=C/c2nc3ccccc3n2S(=O)(=O)c2cccc(Cl)c2)cc1,"inconclusive: 28.2 µM [inhibitor, partial curve, poor fit]",
CS(=O)C1CCCCC1(O)CSc1nc(-c2cccs2)cc(-c2ccccc2)c1C#N (stereo not given),"inconclusive: 28.2 µM [inhibitor, partial curve, poor fit]",
N=C1C(c2nc3ccccc3[nH]2)=C(O)CN1c1ccc(F)cc1,"inconclusive: 39.8 µM [inhibitor, single point]",
CCCCc1cc(=O)oc2cc(C)cc(OCC(=O)NCCN3CCOCC3)c12,"inconclusive: 2 µM [inhibitor, full curve, poor fit]",
COc1ccc(CNC(=O)N2c3ccccc3CC2c2nc(C3CC3)no2)cc1 (stereo not given),"inconclusive: 10 µM [inhibitor, partial curve]",
COc1ccc(-c2cc(NCCO)nc3[nH]ccc23)cc1C(F)(F)F,"inconclusive: 31.6 µM [inhibitor, partial curve, poor fit]",
Cc1ccc2cc(CCC(=O)NCCCN3CCCC3=O)c(=O)[nH]c2c1,"inconclusive: 28.2 µM [inhibitor, partial curve, poor fit]",
c1csc(CN2Cc3[nH]cnc3C[C@H]2c2nc(-c3ccc4ccccc4c3)no2)c1,active: 28.2 µM,
COc1ccc(C(=O)NCC(=O)N2CCN(c3ccccn3)CC2)c(C)c1,active: 22.4 µM,
COc1cc(C(=O)NCC2COc3ccccc3O2)cc(OC)c1C (stereo not given),,inactive: -3.05%
c1cc2c(cc1-c1csc(C3CC3)n1)OCCCO2,,inactive: 21.2%
COc1ccc(N2Cc3c(NC4CC4)ncnc3N(C)CC2=O)cc1,"inconclusive: 20 µM [inhibitor, single point]",
CC1(NC(=O)CCc2ncc(-c3ccccc3)o2)CCS(=O)(=O)C1 (stereo not given),,inactive: -0.851%
CCCCNC(=O)CSC1=Nc2ccccc2C2=NC(CCC(=O)NCc3ccccc3OC)C(=O)N12 (stereo not given),"inconclusive: 15.8 µM [inhibitor, partial curve, poor fit]",
CC1COc2ccccc2N1C(=O)c1ccc(Cl)cc1 (stereo not given),,inactive: 23.4%
O=C(O)C1CCc2nnc(C3CCN(S(=O)(=O)CCC(F)(F)F)CC3)n21 (stereo not given),"inconclusive: 44.7 µM [inhibitor, partial curve, poor fit]",
Cc1ccc(C(=O)N2CCC3(CC2)N=C(c2ccccc2)NO3)s1,"inconclusive: 15.8 µM [inhibitor, partial curve, poor fit]",
O=S(=O)(c1ccc2c(c1)OCCO2)N1CC[C@@H]2COCCN(Cc3cccnc3)[C@@H]2C1,"inconclusive: 17.8 µM [inhibitor, partial curve]",
CN(C)c1ccc(C(=O)N2CCN(c3nnc4ccccn34)CC2)cc1,active: 17.8 µM,

# Source: PubChem BioAssay AID1347165 (National Center for Advancing Translational Sciences (NCATS), 2019)
